# Some of the results follow.
# B1: Dectin2 (Homo sapiens), Q6EIG7 (protein)
# chain: MMQEQQPQSTEKRGWLSLRLWSVAGISIALLSACFIVSCVVTYHFTYGETGKRLSELHSYHSSLTCFSEGTKVPAWGCCPASWKSFGSSCYFISSEEKVWSKSEQNCVEMGAHLVVFNTEAEQNFIVQQLNESFSYFLGLSDPQGNNNWQWIDKTPYEKNVRFWHLGEPNHSAEQCASIVFWKPTGWGWNDVICETRRNSICEMNKIYL
# Columns and labels:
# Experiment in all cases: glycan array binding signal (z-score within array); higher = stronger binding
# Settings in all cases: glycan notation: IUPAC condensed, linker removed
# [1] = target: Gal(b1-4)GlcNAc(b1-2)Man(a1-6)[GlcNAc(b1-2)Man(a1-3)]Man(b1-4)GlcNAc(b1-4)GlcNAc
# In short: (§1)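 The binding signal is a Z-score computed within each array. Data were drawn from 3228 arrays in the Consortium for Functional Glycomics database, restricted to those with a known protein sequence. Scores were averaged over arrays of the same protein sequence at different concentrations or buffers, and over linkers, and negative values can be taken as non-binding.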
# [2] = target: Gal(b1-4)GlcNAc(b1-2)Man(a1-6)[Man(a1-3)]Man(b1-4)GlcNAc(b1-4)GlcNAc
# In short: as §1
# [3] = target: Gal(b1-4)GlcNAc(b1-2)[Gal(b1-4)GlcNAc(b1-4)]Man(a1-3)[Gal(b1-4)GlcNAc(b1-2)Man(a1-6)]Man(b1-4)GlcNAc(b1-4)GlcNAc
# In short: as §1
# [4] = target: Gal(b1-4)GlcNAc(b1-2)[Gal(b1-4)GlcNAc(b1-4)]Man(a1-3)[Gal(b1-4)GlcNAc(b1-2)[Gal(b1-4)GlcNAc(b1-6)]Man(a1-6)]Man(b1-4)GlcNAc(b1-4)GlcNAc
# In short: as §1
# [5] = target: Gal(b1-4)GlcNAc(b1-2)[Gal(b1-4)GlcNAc(b1-4)]Man(a1-3)[GlcNAc(b1-4)][Gal(b1-4)GlcNAc(b1-2)Man(a1-6)]Man(b1-4)GlcNAc(b1-4)GlcNAc
# In short: as §1
# [6] = target: Gal(b1-4)GlcNAc(b1-2)[Gal(b1-4)GlcNAc(b1-4)]Man(a1-3)[GlcNAc(b1-4)][Gal(b1-4)GlcNAc(b1-2)[Gal(b1-4)GlcNAc(b1-6)]Man(a1-6)]Man(b1-4)GlcNAc(b1-4)GlcNAc
# In short: as §1
# [7] = target: Gal(b1-4)GlcNAc(b1-2)[Gal(b1-4)GlcNAc(b1-6)]Man(a1-6)[Gal(b1-4)GlcNAc(b1-2)Man(a1-3)]Man(b1-4)GlcNAc(b1-4)GlcNAc
# In short: as §1
# [8] = target: Gal(b1-4)GlcNAc(b1-2)[Gal(b1-4)GlcNAc(b1-6)]Man(a1-6)[Gal(b1-4)GlcNAc(b1-2)Man(a1-3)]Man(b1-4)GlcNAc(b1-4)[Fuc(a1-6)]GlcNAc
# In short: as §1
# [9] = target: Gal(b1-4)GlcNAc(b1-2)[Gal(b1-4)GlcNAc(b1-6)]Man(a1-6)[GlcNAc(b1-4)][Gal(b1-4)GlcNAc(b1-2)Man(a1-3)]Man(b1-4)GlcNAc(b1-4)GlcNAc
# In short: as §1
# [10] = target: Gal(b1-4)GlcNAc(b1-2)[Gal(b1-4)GlcNAc(b1-6)]Man(a1-6)[GlcNAc(b1-4)][Gal(b1-4)GlcNAc(b1-2)[Gal(b1-4)GlcNAc(b1-4)]Man(a1-3)]Man(b1-4)GlcNAc(b1-4)[Fuc(a1-6)]GlcNAc
# In short: as §1
# [11] = target: Gal(b1-4)GlcNAc(b1-3)Gal(b1-3)GalNAc
# In short: as §1
# [12] = target: Gal(b1-4)GlcNAc(b1-3)Gal(b1-3)GlcNAc
# In short: as §1
# [13] = target: Gal(b1-4)GlcNAc(b1-3)Gal(b1-4)Glc
# In short: as §1
# [14] = target: Gal(b1-4)GlcNAc(b1-3)Gal(b1-4)GlcNAc
# In short: as §1
# [15] = target: Gal(b1-4)GlcNAc(b1-3)Gal(b1-4)GlcNAc(b1-2)Man(a1-3)[Gal(b1-4)GlcNAc(b1-3)Gal(b1-4)GlcNAc(b1-2)Man(a1-6)]Man(b1-4)GlcNAc(b1-4)GlcNAc
# In short: as §1
# [16] = target: Gal(b1-4)GlcNAc(b1-3)Gal(b1-4)GlcNAc(b1-2)Man(a1-3)[Gal(b1-4)GlcNAc(b1-3)Gal(b1-4)GlcNAc(b1-2)Man(a1-6)]Man(b1-4)GlcNAc(b1-4)[Fuc(a1-6)]GlcNAc
# In short: as §1
# [17] = target: Gal(b1-4)GlcNAc(b1-3)Gal(b1-4)GlcNAc(b1-2)[Gal(b1-4)GlcNAc(b1-3)Gal(b1-4)GlcNAc(b1-6)]Man(a1-6)[Gal(b1-4)GlcNAc(b1-3)Gal(b1-4)GlcNAc(b1-2)Man(a1-3)]Man(b1-4)GlcNAc(b1-4)GlcNAc
# In short: as §1
# [18] = target: Gal(b1-4)GlcNAc(b1-3)Gal(b1-4)GlcNAc(b1-2)[Gal(b1-4)GlcNAc(b1-3)Gal(b1-4)GlcNAc(b1-6)]Man(a1-6)[Gal(b1-4)GlcNAc(b1-3)Gal(b1-4)GlcNAc(b1-2)Man(a1-3)]Man(b1-4)GlcNAc(b1-4)[Fuc(a1-6)]GlcNAc
# In short: as §1
# [19] = target: Gal(b1-4)GlcNAc(b1-3)Gal(b1-4)GlcNAc(b1-3)Gal(b1-4)GlcNAc
# In short: as §1
# [20] = target: Gal(b1-4)GlcNAc(b1-3)Gal(b1-4)GlcNAc(b1-3)Gal(b1-4)GlcNAc(b1-2)Man(a1-3)[Gal(b1-4)GlcNAc(b1-3)Gal(b1-4)GlcNAc(b1-3)Gal(b1-4)GlcNAc(b1-2)Man(a1-6)]Man(b1-4)GlcNAc(b1-4)GlcNAc
# In short: as §1
# [21] = target: Gal(b1-4)GlcNAc(b1-3)Gal(b1-4)GlcNAc(b1-3)Gal(b1-4)GlcNAc(b1-2)Man(a1-3)[Gal(b1-4)GlcNAc(b1-3)Gal(b1-4)GlcNAc(b1-3)Gal(b1-4)GlcNAc(b1-2)Man(a1-6)]Man(b1-4)GlcNAc(b1-4)[Fuc(a1-6)]GlcNAc
# In short: as §1
# [22] = target: Gal(b1-4)GlcNAc(b1-3)Gal(b1-4)GlcNAc(b1-3)Gal(b1-4)GlcNAc(b1-2)[Gal(b1-4)GlcNAc(b1-3)Gal(b1-4)GlcNAc(b1-3)Gal(b1-4)GlcNAc(b1-6)]Man(a1-6)[Gal(b1-4)GlcNAc(b1-3)Gal(b1-4)GlcNAc(b1-3)Gal(b1-4)GlcNAc(b1-2)Man(a1-3)]Man(b1-4)GlcNAc(b1-4)[Fuc(a1-6)]GlcNAc
# In short: as §1
binder,measurement,setting,value
B1,glycan array binding signal (z-score),[1],-0.191
same,glycan array binding signal (z-score),[2],-0.207
same,glycan array binding signal (z-score),[3],0.09
same,glycan array binding signal (z-score),[4],-0.187
same,glycan array binding signal (z-score),[5],-0.148
same,glycan array binding signal (z-score),[6],-0.17
same,glycan array binding signal (z-score),[7],-0.135
same,glycan array binding signal (z-score),[8],-0.093
same,glycan array binding signal (z-score),[9],-0.138
same,glycan array binding signal (z-score),[10],-0.138
same,glycan array binding signal (z-score),[11],-0.202
same,glycan array binding signal (z-score),[12],0.194
same,glycan array binding signal (z-score),[13],-0.151
same,glycan array binding signal (z-score),[14],-0.206
same,glycan array binding signal (z-score),[15],0.613
same,glycan array binding signal (z-score),[16],-0.105
same,glycan array binding signal (z-score),[17],0.147
same,glycan array binding signal (z-score),[18],-0.033
same,glycan array binding signal (z-score),[19],-0.191
same,glycan array binding signal (z-score),[20],0.27
same,glycan array binding signal (z-score),[21],-0.086
same,glycan array binding signal (z-score),[22],-0.002

# — the supplement of paper PMC8728848
